Measured values taken from a collection of fitness landscapes (doi:10.1016/j.celrep.2020.107928).
Whole data set: some 81,000 sequences, median “one-hybrid fitness for binding NBS DNA” near -0.1, cut for the highest 2% near 0.36. The list shows a part of the results.

B1: Caulobacter ParB omega fusion; a variant is named by its letters at X, in order, B8GW30 (parent)
chain: MESVVVGEPGMSEGRRGLGRGLSALLGEVDAAPAQAPGEQLGGSREAPIEILQRNPDQPRRTFREEDLEDLSNSIREKGVLQPILVRPSPDTAGEYQIVAGERAWRAAQRAGLKTVPIMVRELDDLAVLEIGIIENVQRADLNVLEEALSYKVLMEKFERTQENIAQTIGKSXSHVANXMRLLXLPDEVQSYLVSGELTAXHARAIAAAADPVALAKQIIEGGLSVRETEALARKAPNLSAGKSKGGRPPRVKDTDTQALESDLSSVLGLDVSIDHRGSTGTLTITYATLEQLDDLCNRLTRGI

Variants of: B1
Assay: one-hybrid fitness for binding NBS DNA (the Noc-binding site; scaled: cognate 1, non-cognate 0); higher = stronger binding
Conditions: with NBS DNA site
Method in brief: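 Fitness here means the log change in variant-to-wild-type read ratio between plasmids sequenced before and after selection. That scale was set so cognate equals 1 and non-cognate equals 0. The selection was a bacterial one-hybrid screen of Caulobacter ParB libraries, four specificity codons randomised, in E. coli USO carrying a HIS3 reporter with the site 19 bp from the promoter, grown 48 hours at 37°C on M9-minus-histidine with 0.1 mM IPTG and 5 mM 3-AT.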

| Variant | one-hybrid fitness for binding NBS DNA |
| --- | --- |
| TMGL | ≤ 0.2 |
| AGAF | ≤ 0.2 |
| ACHT | ≤ 0.2 |
| ESNM | ≤ 0.2 |
| WHQV | ≤ 0.2 |
| LCLV | ≤ 0.2 |
| TMTF | ≤ 0.2 |
| VRGG | ≤ 0.2 |
| YGAG | ≤ 0.2 |
| RYNM | ≤ 0.2 |
| AQSC | ≤ 0.2 |
| PADP | ≤ 0.2 |
| NSFQ | ≤ 0.2 |
| EFHR | ≤ 0.2 |
| DTGC | ≤ 0.2 |
| PASF | ≤ 0.2 |
| STAH | ≤ 0.2 |
| SNST | ≤ 0.2 |
| VYMW | ≤ 0.2 |
| MHCR | ≤ 0.2 |
| SQAQ | ≤ 0.2 |
| HCIY | ≤ 0.2 |
| YPIR | ≤ 0.2 |
| DATG | ≤ 0.2 |

| Variant | one-hybrid fitness for binding NBS DNA |
| --- | --- |
| TWFK | ≤ 0.2 |
| NTKL | ≤ 0.2 |
| HGYT | ≤ 0.2 |
| NNVT | ≤ 0.2 |
| THKF | ≤ 0.2 |
| PADL | ≤ 0.2 |
| EMSG | ≤ 0.2 |
| ARCC | ≤ 0.2 |
| PRNI | ≤ 0.2 |
| PRYV | ≤ 0.2 |
| HLVN | ≤ 0.2 |
| PPAQ | ≤ 0.2 |
| MGWW | ≤ 0.2 |
| CVTT | ≤ 0.2 |
| MCQS | ≤ 0.2 |
| WMRC | ≤ 0.2 |
| NMSS | ≤ 0.2 |
| NTLL | ≤ 0.2 |
| NTSH | ≤ 0.2 |
| HNAK | ≤ 0.2 |
| QQPI | ≤ 0.2 |
| SYQK | ≤ 0.2 |
| PCNS | ≤ 0.2 |
| ITMK | ≤ 0.2 |

| Variant | one-hybrid fitness for binding NBS DNA |
| --- | --- |
| HVQL | ≤ 0.2 |
| AAMQ | ≤ 0.2 |
| MRPT | ≤ 0.2 |
| LKYC | ≤ 0.2 |
| WTRW | ≤ 0.2 |
| LHEG | ≤ 0.2 |
| RICC | ≤ 0.2 |
| RRHK | 0.267 |
| PAKD | ≤ 0.2 |
| AYAY | ≤ 0.2 |
| NGTY | ≤ 0.2 |
| KQSE | ≤ 0.2 |
| SMKV | ≤ 0.2 |
| ITVP | ≤ 0.2 |
| PQDC | ≤ 0.2 |
| LSFI | ≤ 0.2 |
| GSSN | ≤ 0.2 |
| PLDD | ≤ 0.2 |
| FWRY | 0.203 |
| VFRG | ≤ 0.2 |
| HMAN | ≤ 0.2 |
| EECR | ≤ 0.2 |
| KKCG | ≤ 0.2 |
| ATCA | ≤ 0.2 |

| Variant | one-hybrid fitness for binding NBS DNA |
| --- | --- |
| MWQS | ≤ 0.2 |
| VLNY | ≤ 0.2 |
| QLPP | ≤ 0.2 |
| IVPS | ≤ 0.2 |
| VPAV | ≤ 0.2 |
| KRPF | ≤ 0.2 |
| QHSP | ≤ 0.2 |
| SPDN | ≤ 0.2 |
| VTPV | ≤ 0.2 |
| HLKN | ≤ 0.2 |
| ESDR | ≤ 0.2 |
| CVHC | ≤ 0.2 |
| WYNC | ≤ 0.2 |
| RLCT | 0.396 |
| RRTC | 0.314 |
| CQCL | ≤ 0.2 |
| KGKV | ≤ 0.2 |
| RNGP | ≤ 0.2 |
| RQMD | ≤ 0.2 |
| TIPM | ≤ 0.2 |
| PRFH | ≤ 0.2 |
| KRIP | ≤ 0.2 |
| QELQ | ≤ 0.2 |
| CAKG | ≤ 0.2 |

| Variant | one-hybrid fitness for binding NBS DNA |
| --- | --- |
| ACWL | ≤ 0.2 |
| GTAD | ≤ 0.2 |
| SNYS | ≤ 0.2 |
| GNPR | ≤ 0.2 |
| DATL | ≤ 0.2 |
| GSQC | ≤ 0.2 |
| ILGL | ≤ 0.2 |
| AKAR | ≤ 0.2 |
| QPVH | ≤ 0.2 |
| NTNE | ≤ 0.2 |
| KGEV | ≤ 0.2 |
| LLIV | ≤ 0.2 |
| TQLQ | ≤ 0.2 |
| YLSC | ≤ 0.2 |
| LRRA | ≤ 0.2 |
| WNCL | ≤ 0.2 |
| RKER | 0.475 |
| VWYT | ≤ 0.2 |
| VYMC | ≤ 0.2 |
| RQTD | ≤ 0.2 |
| HHSP | ≤ 0.2 |
| QSKE | ≤ 0.2 |
| QPYN | ≤ 0.2 |
| QFIM | ≤ 0.2 |

| Variant | one-hybrid fitness for binding NBS DNA |
| --- | --- |
| QVLA | ≤ 0.2 |
| DMSS | ≤ 0.2 |
| APAM | ≤ 0.2 |
| HQTG | ≤ 0.2 |
| REHW | ≤ 0.2 |
| YAYT | ≤ 0.2 |
| EQRF | ≤ 0.2 |
| TSGS | ≤ 0.2 |
| MHAT | ≤ 0.2 |
| DVHC | ≤ 0.2 |
| QAWW | ≤ 0.2 |
| CRTL | ≤ 0.2 |
| LYAV | ≤ 0.2 |
| QTML | ≤ 0.2 |
| TWSG | ≤ 0.2 |
| SYQW | ≤ 0.2 |
| HKVC | ≤ 0.2 |
| QVER | ≤ 0.2 |
| APQY | ≤ 0.2 |
| HSEQ | ≤ 0.2 |
| CFTM | ≤ 0.2 |
| DSRW | ≤ 0.2 |
| PWPC | ≤ 0.2 |
| SMTC | ≤ 0.2 |

| Variant | one-hybrid fitness for binding NBS DNA |
| --- | --- |
| QKKF | 0.294 |
| SCQY | ≤ 0.2 |
| CIRD | ≤ 0.2 |
| MMLG | ≤ 0.2 |
| IFKT | ≤ 0.2 |
| TKET | ≤ 0.2 |
| LMNG | ≤ 0.2 |
| GCIS | ≤ 0.2 |
| HCSE | ≤ 0.2 |
| AQHW | ≤ 0.2 |
| QCCA | 0.326 |
| DRHG | ≤ 0.2 |
| WLGC | ≤ 0.2 |
| QMSL | ≤ 0.2 |
| RKLH | 0.227 |
| FHNQ | ≤ 0.2 |
| STWT | ≤ 0.2 |
| SVSV | ≤ 0.2 |
| RQYY | ≤ 0.2 |
| QYKK | 0.398 |
| IRAV | ≤ 0.2 |
| TWYR | ≤ 0.2 |
| VTLE | ≤ 0.2 |
| SPMY | ≤ 0.2 |

| Variant | one-hybrid fitness for binding NBS DNA |
| --- | --- |
| PDYR | ≤ 0.2 |
| QFNI | ≤ 0.2 |
| WLVA | ≤ 0.2 |
| CKDR | ≤ 0.2 |
| VWLP | ≤ 0.2 |
| WCAC | ≤ 0.2 |
| MMTS | ≤ 0.2 |
| PGPR | ≤ 0.2 |
| AALL | ≤ 0.2 |
| KCQR | ≤ 0.2 |
| EPTT | ≤ 0.2 |
| CQRY | ≤ 0.2 |
| TKYM | ≤ 0.2 |
| QTLN | ≤ 0.2 |
| PNAQ | ≤ 0.2 |
| CLDE | ≤ 0.2 |
| PKAK | ≤ 0.2 |
| PHEF | ≤ 0.2 |
| PLLE | ≤ 0.2 |
| QACC | ≤ 0.2 |
| PKRG | ≤ 0.2 |
| RFHM | ≤ 0.2 |
| NRSI | ≤ 0.2 |
| NLDH | ≤ 0.2 |

| Variant | one-hybrid fitness for binding NBS DNA |
| --- | --- |
| ITYM | ≤ 0.2 |
| PSHY | ≤ 0.2 |
| ICNL | ≤ 0.2 |
| RCVG | ≤ 0.2 |
| WVNG | ≤ 0.2 |
| LLWV | ≤ 0.2 |
| SMLI | ≤ 0.2 |
| PIEG | ≤ 0.2 |
| DGIM | ≤ 0.2 |
| TRHE | ≤ 0.2 |
| SCKK | ≤ 0.2 |
| CILL | ≤ 0.2 |
| KSRH | ≤ 0.2 |
| DKNT | ≤ 0.2 |
| MHPL | ≤ 0.2 |
| AVPE | ≤ 0.2 |
| TMPC | ≤ 0.2 |
| LVIC | ≤ 0.2 |
| WYAS | ≤ 0.2 |
| ALPT | ≤ 0.2 |
| GRLY | ≤ 0.2 |
| SFMH | ≤ 0.2 |
| NNNL | ≤ 0.2 |
| DRKS | ≤ 0.2 |

| Variant | one-hybrid fitness for binding NBS DNA |
| --- | --- |
| NALV | ≤ 0.2 |
| QYHE | ≤ 0.2 |
| CGNI | ≤ 0.2 |
| NTNQ | ≤ 0.2 |
| PTWW | ≤ 0.2 |
| KPLD | ≤ 0.2 |
| FSLC | ≤ 0.2 |
| VVQF | ≤ 0.2 |
| NVGS | ≤ 0.2 |
| VAQW | ≤ 0.2 |
| PPTR | ≤ 0.2 |
| MCMR | ≤ 0.2 |
| TLHG | ≤ 0.2 |
| HSHM | ≤ 0.2 |
| QHSS | 0.37 |
| CMRT | ≤ 0.2 |
| REFG | ≤ 0.2 |
| VMAV | ≤ 0.2 |
| SLIG | ≤ 0.2 |
| PNPL | ≤ 0.2 |
| LDCG | ≤ 0.2 |
| NVLW | ≤ 0.2 |
| KMQC | ≤ 0.2 |
| TLIR | ≤ 0.2 |

| Variant | one-hybrid fitness for binding NBS DNA |
| --- | --- |
| CWAY | ≤ 0.2 |
| QPPQ | ≤ 0.2 |
| PAQC | ≤ 0.2 |
| TAQD | ≤ 0.2 |
| PAVK | ≤ 0.2 |
| INYG | ≤ 0.2 |
| LYVP | ≤ 0.2 |
| VKNT | ≤ 0.2 |
| SGAY | ≤ 0.2 |
| VYLV | ≤ 0.2 |
| FESD | ≤ 0.2 |
| LHKI | ≤ 0.2 |
| NRCV | ≤ 0.2 |
| ARGG | ≤ 0.2 |
| AIES | ≤ 0.2 |
| KVKV | ≤ 0.2 |
| RGQE | ≤ 0.2 |
| KTKM | ≤ 0.2 |
| VSDC | ≤ 0.2 |
| MEDR | ≤ 0.2 |
| RWQM | ≤ 0.2 |
| KRNG | ≤ 0.2 |
| RRLG | 0.245 |
| VRKG | ≤ 0.2 |

| Variant | one-hybrid fitness for binding NBS DNA |
| --- | --- |
| WHTS | ≤ 0.2 |
| PRYK | ≤ 0.2 |
| TPKL | ≤ 0.2 |
| KVKE | ≤ 0.2 |
| NHYF | ≤ 0.2 |
| VIRT | ≤ 0.2 |
| HART | ≤ 0.2 |
| LGWC | ≤ 0.2 |
| VGSV | ≤ 0.2 |
| DATA | ≤ 0.2 |
| NTGC | ≤ 0.2 |
| HAPS | ≤ 0.2 |
| LYSS | ≤ 0.2 |
| CMHG | ≤ 0.2 |
| PIFR | ≤ 0.2 |
| LHEL | ≤ 0.2 |
| GPGA | ≤ 0.2 |
| QCTF | ≤ 0.2 |
| DMYA | ≤ 0.2 |
| RVHF | ≤ 0.2 |
| HAQR | ≤ 0.2 |
| NQDT | ≤ 0.2 |
| YSTM | ≤ 0.2 |
| QGCI | ≤ 0.2 |

| Variant | one-hybrid fitness for binding NBS DNA |
| --- | --- |
| SAGI | ≤ 0.2 |
| MLIY | ≤ 0.2 |
| AATP | ≤ 0.2 |
| PTLA | ≤ 0.2 |
| KVMR | ≤ 0.2 |
| SVHG | ≤ 0.2 |
| KDTP | ≤ 0.2 |
| TRLD | ≤ 0.2 |
| HSVG | ≤ 0.2 |
| QRLM | 0.322 |
| RDNV | ≤ 0.2 |
| WPPI | ≤ 0.2 |
| VCNR | ≤ 0.2 |
| VEPF | ≤ 0.2 |
| RTWV | ≤ 0.2 |
| RFAQ | ≤ 0.2 |
| DKPG | ≤ 0.2 |
| QMNK | ≤ 0.2 |
